This is one part of the list. These are noisy estimates, calculated here from bound and input reads.
biological target: T1, Pho4 (S. cerevisiae) (UniProt P07270); assay: relative binding free energy (BET-seq); higher = weaker binding; conditions: reference: library average
T1 sequence: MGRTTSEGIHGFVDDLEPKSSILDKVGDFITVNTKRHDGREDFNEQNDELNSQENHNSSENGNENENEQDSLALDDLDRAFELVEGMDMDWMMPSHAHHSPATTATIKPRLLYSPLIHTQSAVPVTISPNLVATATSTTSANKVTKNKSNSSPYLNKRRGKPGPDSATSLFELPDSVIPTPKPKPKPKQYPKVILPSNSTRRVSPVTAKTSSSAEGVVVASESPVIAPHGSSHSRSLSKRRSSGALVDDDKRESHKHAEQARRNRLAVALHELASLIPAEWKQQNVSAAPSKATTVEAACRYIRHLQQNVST

Sequence	relative binding free energy [kJ/mol]
TTTGGCACGTGTCTGA	-0.46
AGTTTCACGTGTCTTG	1.17
CAATACACGTGTGTGG	0.335
GTTTTCACGTGTGAAG	1.42
TGGAACACGTGTATGG	-0.0418
GGGGACACGTGGGGAC	-0.418
GTTGCCACGTGTGGGT	0
GTGGGCACGTGTGATA	0.251
TTCTGCACGTGTGGTT	0.586
TAGGACACGTGTAGGC	0.753
AGTATCACGTGAAGAG	1.38
TATGTCACGTGGAAAG	0.711
ATTTTCACGTGTGCAT	0.962
TGTAGCACGTGTTGCC	-0.0418
TGTTGCACGTGTGTAG	0.0837
CGGGGCACGTGGAAGC	-0.293
AGGAACACGTGGGGAA	-0.126
AAAGTCACGTGCGTGG	0.418
TCATACACGTGTGGGT	0.293
GTGTACACGTGTGGCG	0.209
TAAGTCACGTGTCTTT	0.209
AGTTGCACGTGGTTCA	-0.628
CGCTGCACGTGGGTGT	-0.837
TTGGACACGTGAGGTT	1
TTTGTCACGTGTAATG	0.251
ATGTACACGTGCTGGC	0.711

Sequence	relative binding free energy [kJ/mol]
CAGTACACGTGGGGGT	-0.46
GGTCGCACGTGAGAGG	0.837
TATGTCACGTGAAGAT	0.837
GAGGTCACGTGAGAGT	0.962
GCTTACACGTGGTTGT	-0.251
TTGGGCACGTGGAAAC	0.251
GTTTACACGTGTTCTT	0.628
TATGACACGTGCGGAG	0
TGGTTCACGTGTACAA	0.92
TGTGACACGTGGCGCG	-0.502
CATATCACGTGAAGGG	1.8
AGTGGCACGTGGTGAT	-0.753
TTGATCACGTGGTACG	-0.0837
TTAAGCACGTGTGGGC	0.418
TTATTCACGTGTGTGA	0.962
TGCATCACGTGTTGAG	0.795
GTCGTCACGTGTGGAG	0.586
GTGATCACGTGTATGA	0.628
TTCGACACGTGGTATT	-0.209
TACGTCACGTGGGTGT	-0.837
GTAGGCACGTGTCTTT	0.0418
GGTCTCACGTGTAGTT	1.17
TAGAGCACGTGAGGGG	-0.209
GGCGTCACGTGTTTCG	0.879
CGGGGCACGTGACGGG	-0.167
AAGGTCACGTGAATGG	1

Sequence	relative binding free energy [kJ/mol]
GGTAACACGTGTTATG	0.0837
GTTGGCACGTGCGATG	-0.0837
GTATGCACGTGGACAG	-0.0418
TGAGTCACGTGCGTGG	-0.0418
TAGTTCACGTGATAAT	2.34
TGTTACACGTGGGAGC	-0.0418
GTGTACACGTGCGCGT	-0.0837
AGAAACACGTGGTGAG	-0.251
TTCTTCACGTGGTCTT	0.962
AGGATCACGTGGTGGT	0.753
TTATACACGTGGTCGG	-0.544
AAGGACACGTGGGGTG	-0.502
AAGTGCACGTGATGGG	0.418
TCGAGCACGTGCTGGT	-0.251
TTAGCCACGTGTGTTA	-0.335
TGAAGCACGTGCGGGA	-1.09
TAGTACACGTGAGGGA	0.795
CGGTTCACGTGAATGG	1.3
GGCGTCACGTGTAATG	1.46
GCGGTCACGTGGGTAG	0.586
TCAATCACGTGAGGGG	1.17
GGGATCACGTGCATGG	0.418
GGGAACACGTGGATAG	0.251
AAATGCACGTGGGGAA	-0.167
AGTGGCACGTGTCATA	-0.377
AAGCTCACGTGGATTG	1.13

Sequence	relative binding free energy [kJ/mol]
ATATGCACGTGTTTAT	0
TAGCGCACGTGAGGTC	1.3
GAAGTCACGTGGATTG	0.879
AGCAGCACGTGAGGGG	0.669
TACTGCACGTGGAAGG	0.167
CGTCGCACGTGGGGCG	-1.05
CTTTGCACGTGAGGGA	0
CGCTTCACGTGGTTTG	1.09
GGACGCACGTGTTAGT	-0.335
TTGAACACGTGATGAT	0.628
ATGTTCACGTGCTTAG	0.92
GTCAACACGTGGGGCT	0.377
TGTATCACGTGTGAGG	1.3
ATTGTCACGTGACGGC	0.711
CAAGGCACGTGGTGTA	-0.837
GATGGCACGTGGTTAA	-0.377
ATTAGCACGTGTATAA	0.0418
TGTTGCACGTGGCCTA	0.0837
TGGCGCACGTGTGGTT	-0.46
TGGGCCACGTGTGTGA	-0.335
TGTCTCACGTGTGTTC	1.05
ATGAGCACGTGGGCCG	-0.92
AGTGTCACGTGGGACA	-0.293
TAGTTCACGTGCTGAT	1.05
CTGTTCACGTGGTTTA	1.13
TTTTCCACGTGTGGCT	0.251

Sequence	relative binding free energy [kJ/mol]
GTATTCACGTGTTAGA	0.377
GTGGTCACGTGAGTCT	1.59
TAATACACGTGGGGCA	-0.293
GTTCTCACGTGATTGG	1.46
TATTTCACGTGAGTAC	1.26
ACGGTCACGTGGTTAA	0.167
AGGTGCACGTGGTTTC	-0.251
TGGTCCACGTGGATAG	0.0418
TTGTTCACGTGTTCTC	1
AGATTCACGTGGTTCG	0.753
GCGGGCACGTGTAAGT	-0.251
CATTTCACGTGTGGCG	0.92
AAGAGCACGTGTGTTT	-0.0837
ACTATCACGTGTGTTT	0.377
ATTTTCACGTGTTCGT	0.837
CATTGCACGTGTGTTG	-0.46
AAAGGCACGTGGAAGT	-0.167
AGTAGCACGTGGTTGT	-0.586
TGGAGCACGTGGAAGG	-0.293
TTTGACACGTGCGTGG	-0.293
TGGTACACGTGTAGGT	0.46
TCGTTCACGTGGAGCG	1.34
ATTGGCACGTGTCGGA	-0.586
TGGATCACGTGCTGCG	0.628
TCGGTCACGTGTATGT	0.293
GTTATCACGTGTGGGC	0.669

Sequence	relative binding free energy [kJ/mol]
TCAGGCACGTGATTGT	-0.502
TAGTTCACGTGCCTTG	1.72
TGGGACACGTGTAGTA	0.502
TGGCGCACGTGGTAGG	-0.669
TATGACACGTGGGGTC	-0.377
GAGAGCACGTGAGGGA	1.3
AGCGGCACGTGATGGT	0.418
ACGTACACGTGATTGT	0.293
AGATGCACGTGGGTCT	-1.17
GGGGTCACGTGCGTTA	0.418
CGGGTCACGTGGGCGT	-0.377
TTGTACACGTGTGTTT	0.795
GGTGCCACGTGTTAGT	-0.962
CGAGTCACGTGGTGAT	0.0837
AGTTTCACGTGATTCT	1.21
GGCGGCACGTGGATGT	0.0418
ATGTTCACGTGGTGGA	1
GTGGCCACGTGAGCGG	1.17
TTGTACACGTGTCGTA	0.335
AGGCGCACGTGAGGCA	0.628
AATATCACGTGGTGGT	0
TTTTGCACGTGAGGCA	0.628
GGTAGCACGTGAGTTG	1.13
GTTACCACGTGTGGGG	0.502
AAATGCACGTGCGTGG	-0.167
TGATGCACGTGGGTGA	-0.502

Sequence	relative binding free energy [kJ/mol]
TTATACACGTGTTAGA	-0.502
AGTTGCACGTGGCATA	-0.586
CAGTCCACGTGTGTGG	0.46
CGTAGCACGTGAGGGC	0.502
GAGCGCACGTGGATGT	-0.167
TAAGGCACGTGAGATT	0.795
GTAGGCACGTGTTTTC	0.377
GTTTACACGTGAAGAT	1.09
TTAGTCACGTGGTCGT	0.418
TTCGTCACGTGATGGG	1.13
ATGTCCACGTGTATTT	0.167
TGGCACACGTGTAAGT	0.335
TTGGGCACGTGGTTGG	-0.377
GAGTGCACGTGCAGGT	0.0837
AGTAACACGTGTCGTG	-0.0418
TTCGGCACGTGGGATT	-0.209
GGAGACACGTGGGGTC	-0.293
ACAGGCACGTGGGTGG	-1.13
AGAGGCACGTGGTCCG	-0.251
ACGTACACGTGGGGTT	-0.251
TGAGGCACGTGGTCAA	-0.335
TGCGTCACGTGGTGGC	-0.377
TTAGCCACGTGATTTT	0.209
TATTTCACGTGTTATT	0.879
TTAATCACGTGGTTAT	0.669
TCTATCACGTGGGAGG	0.167

Sequence	relative binding free energy [kJ/mol]
TCTGTCACGTGGTAAT	0.586
GATGGCACGTGTAACG	0.502
ATTTTCACGTGGTTGT	1.13
AATGTCACGTGTAAAG	0.837
GGGGGCACGTGAAAAT	0.753
GTTGTCACGTGGCCGT	0.418
CGTTTCACGTGTTTTG	1.05
GCGTTCACGTGAAGGT	1.84
TATTGCACGTGTGCGA	0
TTGTGCACGTGATGTC	0
GTAGGCACGTGATTTG	0.167
TATGGCACGTGTGGAC	-0.544
ATATTCACGTGTACTG	1
CTCTGCACGTGGATGT	0.46
GGCAGCACGTGTAGTG	-0.126
TTTGTCACGTGGCCTG	0.0418
GAAGGCACGTGAAGGA	0.962
TGAGGCACGTGGTCTA	-0.962
GGCATCACGTGTGTTG	1.34
GTTCGCACGTGTATAT	0.586
ATCGTCACGTGTGTAA	0.126
CTTGTCACGTGTTATT	0.418
CATGGCACGTGAGGCG	0.377
TAGGGCACGTGTCGAG	-0.167
AGTCACACGTGTGGTG	0.335
TGTTTCACGTGAGATA	1.72

Sequence	relative binding free energy [kJ/mol]
AGTGCCACGTGTTGAT	-0.293
GCTTTCACGTGGCTGT	1.13
AGTAACACGTGTTGTT	-0.251
TTGTGCACGTGAAAGA	0.879
ATAGACACGTGTATGT	-0.209
TTCGTCACGTGGTTAC	0.46
GAGGTCACGTGGGATT	0.46
GTGAACACGTGAGATT	1.09
TGATTCACGTGAGTTT	2.22
CCGGGCACGTGGGCGG	-1.21
TTATGCACGTGTATTT	0.209
AAGTACACGTGTATGA	0.753
GGGAGCACGTGAGCAT	0.669
TGTGCCACGTGGCGAG	-0.753
TGTTTCACGTGGCTAG	0.92
TAAGGCACGTGGTACG	-1.17
TTTATCACGTGCATGG	0.628
AGATTCACGTGATTGA	1.17
TTTATCACGTGGCATG	0.586
GATTGCACGTGTAATG	0.418
CAATGCACGTGGTTGT	-0.167
ATGGTCACGTGGTAGC	0.46
